Laboratory results published in PubChem BioAssay AID1476 (National Center for Advancing Translational Sciences (NCATS), 2009).
Among all 200,000 compounds or so, about 4,500 (2.2%) were called active. The inconclusive results got no clear call from the source; some entries with a clear call stand among them for comparison. The call rests on the fitted dose curve; in most records, active means well fitted inhibition curve with a large enough effect; inconclusive means small, poorly fitted or top-dose-only effect, or effect the other way; inactive means flat fitted curve, though single readings scatter. Potencies beside an inconclusive call are fits to weak or partial responses and may not hold up.

Target: Cruzipain (Trypanosoma cruzi) (UniProt P25779)
Sequence of UniProt P25779 (P25779 whole entry, looked up): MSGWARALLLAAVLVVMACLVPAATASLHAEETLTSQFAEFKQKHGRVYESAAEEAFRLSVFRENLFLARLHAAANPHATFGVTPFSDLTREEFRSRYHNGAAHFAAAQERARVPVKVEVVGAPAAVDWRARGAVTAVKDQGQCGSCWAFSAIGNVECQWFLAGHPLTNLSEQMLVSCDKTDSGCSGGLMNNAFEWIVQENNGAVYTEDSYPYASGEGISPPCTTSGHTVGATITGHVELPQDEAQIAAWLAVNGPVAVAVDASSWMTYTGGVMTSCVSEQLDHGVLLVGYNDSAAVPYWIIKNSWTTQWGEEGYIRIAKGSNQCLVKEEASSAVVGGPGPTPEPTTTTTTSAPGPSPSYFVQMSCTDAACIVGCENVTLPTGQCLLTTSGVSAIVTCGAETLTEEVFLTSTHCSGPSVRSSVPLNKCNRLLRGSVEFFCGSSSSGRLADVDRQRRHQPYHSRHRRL
Assay: qHTS Assay for Promiscuous and Specific Inhibitors of Cruzain (without detergent); further: nearly all actives have a fitted effect of over 40% in size;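 on max response, negative = inhibition: plate controls were enzyme without inhibitor for no effect and buffer without enzyme for full effect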
Conditions: purified cruzain, Z-FR-AMC fluorescence, no detergent
Summary of the method: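 Detergent-free condition (0.00005% Triton X-100) in acetate buffer pH 5.5 with DTT. 1.5 nM enzyme and compound were pre-mixed 15 min, then 2 uM Z-FR-AMC substrate added; reaction progress from fluorescence change between first and third reads (60 s).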
Potency means the concentration at half of the fitted maximal effect; tags describe the fitted curve by direction and shape.

| SMILES | Potency | max response, negative = inhibition |
| --- | --- | --- |
| COC(=O)[C@@]1(Cc2ccccc2)[C@H]2c3cc(C(=O)N(C)C)n(Cc4nc5ccccc5[nH]4)c3C[C@H]2CN1C(=O)c1ccccc1 | inconclusive: 39.8 µM [activator, single point] | – |
| COc1cc(C2C(=O)N(C3CCCCC3)CC(=O)N2C2CCCCC2)ccc1OC(C)C (centres undefined) | – | inactive: 7.71% |
| CCn1c(CNc2nc(-c3ccccc3)cs2)nnc1SCC(=O)NCc1ccccc1 | inconclusive: 25.1 µM [activator, single point] | – |
| CCOC(=O)c1oc2ccc(S(=O)(=O)n3nc(-c4ccc(Cl)cc4)cc3N)cc2c1C | active: 12.6 µM | – |
| CCOC(=O)c1ccc(NC(=O)C2=C(C)Nc3nc(CCCO)nn3C2c2ccc(OC)cc2)cc1 (centres undefined) | inconclusive: 39.8 µM [activator, single point] | – |
| COc1ccccc1NC(=S)NC(=O)c1ccc(Cn2cc(Br)cn2)cc1 | inconclusive: 39.8 µM [inhibitor, single point] | – |
| CC1OCC23CC[C@@]4(C)CCC(C)(C)C[C@H]4[C@]2(C)CCC12C3CC[C@@]1(C)C2C(=O)CC(=O)[C@@H]1C (some centres undefined) | – | inactive: 3.52% |
| CSc1nc2ccc(NC(=O)C3CC(=O)N(Cc4ccccc4)C3)cc2s1 (centres undefined) | inconclusive: 31.6 µM [activator, single point] | – |
| O=c1c(O)c(-c2cc(O)c(O)c(O)c2)oc2cc(O)cc(O)c12 | active: 12.6 µM | – |
| O=C(Nc1ccc(N=Nc2ccccc2)cc1)c1ccc(Cl)cc1Cl | active: 12.6 µM | – |
| Cc1ccc(C(=O)NCCc2nnc(SCC(=O)Nc3nc(-c4ccccc4)cs3)n2C)cc1 | inconclusive: 39.8 µM [inhibitor, single point] | – |
| Cc1cccc(N2CCN(C(=O)CS(=O)(=O)Cc3nc(-c4ccccc4C)oc3C)CC2C)c1 (centres undefined) | inconclusive: 25.1 µM [activator, partial curve] | – |
| CCOc1ccc(N(Cc2ccccc2)C(=O)c2nc(S(C)(=O)=O)ncc2Cl)cc1 | inconclusive: 39.8 µM [activator, single point] | – |
| COc1ccc(Nc2sc(C(=O)c3ccc(Cl)cc3)c(N)c2C(=O)Nc2ccccc2OC)cc1 | active: 3.98 µM | – |
| CCOc1ccc2nc(/N=C/c3nc(-c4ccc(Br)cc4)oc3O)sc2c1 | active: 7.94 µM | – |
| CCCCNC(C(=O)Nc1ccc(Cl)c([N+](=O)[O-])c1)c1ccccc1 (centres undefined) | – | inactive: -2.69% |
| CCCc1sc(N2CCCC(C(N)=O)C2)nc1-c1ccccc1 (centres undefined) | inconclusive: 39.8 µM [activator, single point] | – |
| CC1(C)c2ssc(=S)c2-c2ccccc2N1C(=O)c1ccco1 | inconclusive: 31.6 µM [inhibitor, single point] | – |
| O=C(Cc1ccc(-n2cccc2)cc1)N1CCc2ccccc21 | inconclusive: 31.6 µM [inhibitor, single point] | – |
| CCOC(=O)c1sc(NC(=O)c2cc(-c3ccccc3C)nc3ccccc23)c(C#N)c1C | active: 10 µM | – |
| COc1ccc(-c2cc(C(F)(F)F)nc(SCCC(=O)N3CCOCC3)n2)cc1 | inconclusive: 39.8 µM [activator, single point] | – |
| CC(C)(C)OC(=O)N1CCC[C@H]1c1nnc(SCc2ccc(Cl)cc2Cl)o1 | inconclusive: 31.6 µM [activator, single point] | – |

| SMILES | Potency | max response, negative = inhibition |
| --- | --- | --- |
| C=CCc1cccc(/C=N/NC(=O)CNc2cccc3ccccc23)c1O | inconclusive: 31.6 µM [inhibitor, single point] | – |
| Cc1cccc(-n2nc(C)c(C(=O)Nc3cc(C)ccc3C)c2-n2cccc2)c1 | – | inactive: -9.04% |
| O=C(CSc1nc(-c2ccccc2)c(-c2ccccc2)[nH]1)NCCN1C(=O)CSC1=O | inconclusive: 39.8 µM [activator, single point] | – |
| CCOC(=O)N1CCN(C(=O)C2c3cc(OC)c(OC)cc3C(=O)N3CCc4ccccc4C23)CC1 (centres undefined) | inconclusive: 31.6 µM [activator, single point] | – |
| CCCOc1ccc(-c2c(C(=O)N/N=C/c3ccc(OC)cc3)nnn2-c2nonc2N)cc1 | inconclusive: 31.6 µM [inhibitor, single point] | – |
| CCOC(=O)c1c(NC(=O)C2c3ccccc3Oc3ccccc32)sc(C)c1C | inconclusive: 3.98 µM [inhibitor, full curve, poor fit] | – |
| CCOc1cccc2sc(N(Cc3cccnc3)C(=O)c3ccc(C#N)cc3)nc12 | inconclusive: 25.1 µM [activator, partial curve] | – |
| CCCOc1cccc(C(=O)Nc2cc(NC(=O)c3ccco3)ccc2OC)c1 | inconclusive: 25.1 µM [activator, single point] | – |
| COc1ccc(C(=O)c2sc3nc(-c4ccc(OC)cc4)ccc3c2N)cc1 | inconclusive: 31.6 µM [inhibitor, single point] | – |
| Cc1sc(NC(=O)c2cc(-c3ccc(Cl)cc3)nc3ccccc23)c(C(N)=O)c1C | active: 12.6 µM | – |
| Cc1csc2nc(COC(=O)c3ccccc3NC(=O)c3ccc(C(C)(C)C)cc3)cc(=O)n12 | – | inactive: -3.55% |
| COc1ccc(CC(=O)Nc2ccc(-c3nc4ccccc4s3)c(C)c2)cc1OC | – | inactive: -9.13% |
| O=C1NC(=O)C(=Cc2cn(CCOc3ccc4c(c3)OCO4)c3ccccc23)C(=O)N1 | inconclusive: 31.6 µM [inhibitor, single point] | – |
| Cc1nc(NC(=O)c2ccccc2)sc1-c1csc(NCCc2ccccc2)n1 | inconclusive: 31.6 µM [inhibitor, single point] | – |
| COc1ccccc1N1CCN(C(=O)c2ccc(S(=O)(=O)N3CCCCCC3)cc2)CC1 | inconclusive: 25.1 µM [activator, partial curve] | – |
| COCCn1c(SCc2nc3ccccc3c(=O)[nH]2)nnc1-c1ccncc1 | – | inactive: -0.061% |
| COc1cc(NC(=O)CN2C(=O)NC(c3ccccc3)(c3ccccc3)C2=O)c(C)cc1[N+](=O)[O-] | inconclusive: 31.6 µM [inhibitor, single point] | – |
| CC(=O)Nc1ccc2c(c1)nc(CCNC(=O)c1ccccc1)n2C | – | inactive: -13.2% |
| CC(C)(C)CNCCO | – | inactive: 7.18% |
| C=CCNC(=S)N/N=C/c1ccc(-c2cc(Cl)ccc2Cl)o1 | active: 7.94 µM | – |
| Cc1nc(SCC(=O)Nc2ccc(C)c(F)c2)c2oc3ccccc3c2n1 | inconclusive: 10 µM [activator, partial curve] | – |
| COc1c(F)c(F)c(C(=O)Nc2ccc(N3CCN(Cc4ccccc4)CC3)cc2)c(F)c1F | inconclusive: 39.8 µM [inhibitor, single point] | – |

| SMILES | Potency | max response, negative = inhibition |
| --- | --- | --- |
| CC(C)C[C@@H](CC(=O)N[C@@H](CCC(=O)O)CC(=O)O)NC(=O)[C@@H]1CCCC[C@H]1NC(=O)C[C@@H](NC(=O)C[C@H](Cc1c[nH]c2ccccc12)NC(=O)[C@@H]1CCCC[C@H]1N)C(C)C | inconclusive: 31.6 µM [activator, single point] | – |
| COc1cccc(OCCn2cc(/C=N/NC(=O)c3ccncc3)c3ccccc32)c1 | inconclusive: 39.8 µM [activator, single point] | – |
| Cc1cccc(N2CCN(C(c3ccccc3)c3nnnn3CC3CCCO3)CC2)c1C (centres undefined) | inconclusive: 25.1 µM [activator, single point] | – |
| COc1cc2cc(CNc3ccccc3)c(=O)n(CC(=O)Nc3cccc(Cl)c3C)c2cc1OC | – | inactive: 9.12% |
| COc1cc(Sc2ccc(C)cc2)c(OC)cc1N | active: 15.8 µM | – |
| CCCCn1c(N)nc2ccccc21 | inconclusive: 3.98 µM [inhibitor, partial curve] | – |
| Cc1ccc(N)cc1C | – | inactive: -1.87% |
| Cc1ccc(CNC(=O)CSc2ncc3c(n2)-c2cc(Cl)ccc2N(C)S3(=O)=O)cc1 | – | inactive: -0.481% |
| CCc1cc2cc3c(cc2nc1SCC(=O)Nc1nnc(C)s1)OCCO3 | inconclusive: 39.8 µM [activator, single point] | – |
| CCCCOc1ccc(CNC(=O)c2cccc(NC(=O)N3CCSc4ncccc43)c2)cc1 | inconclusive: 31.6 µM [inhibitor, single point] | – |
| CCCCNC(=O)CC1C(=O)N(Cc2ccccc2)C(C)c2nc3ccccc3n21 (centres undefined) | active: 12.6 µM | – |
| CN(CC(=O)N1CCN(c2cccc(Cl)c2)CC1)S(=O)(=O)c1cccs1 | inconclusive: 39.8 µM [activator, single point] | – |
| COc1cc(NC(=O)c2ccc(C)c(Cl)c2)ccc1NC(=O)c1cc2ccccc2o1 | – | inactive: -5.23% |
| Cc1nnc(NC2(C(F)(F)F)C(=O)Nc3c2c(=O)n(C)c(=O)n3C)s1 (centres undefined) | – | inactive: 8.67% |
| NC(=O)c1ccc(-c2ncc(-c3ccccc3)o2)cc1 | inconclusive: 12.6 µM [activator, partial curve] | – |
| O=C(c1ccc(Cl)cc1)[C@@H]1[C@@H]2C(=O)N(c3cccc4ccccc34)C(=O)[C@@H]2C2c3ccccc3C=NN21 (some centres undefined) | active: 25.1 µM | – |
| C=CCSc1nc2ccccc2n1C(=O)/C=C/c1cc(OC)c(OC)c(OC)c1 | inconclusive: 31.6 µM [activator, single point] | – |
| CC1(C)OC(=O)N(c2ccccc2)C12C=Cc1c(ccc3ccccc13)O2 (centres undefined) | inconclusive: 20 µM [inhibitor, partial curve, poor fit] | – |
| Cc1ccc(NC(=O)C2CCCN(S(=O)(=O)c3ccc4[nH]c(=O)ccc4c3)C2)cc1Cl (centres undefined) | – | inactive: -0.7% |
| CCN(C(=O)COc1cc(=O)n(CC)c2ccccc12)c1cc(Cl)ccc1OC | inconclusive: 31.6 µM [activator, single point] | – |
